About 14,000 (4.5%) of roughly 310,000 compounds showed an effect of 50% or more. Effects have a minus sign here. The list shows a part of the results.
molecular target: human ether-à-go-go-related gene (hERG) potassium channel (human, UniProt Q12809); test: primary screen, population patch clamp on CHO cells stably expressing hERG
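Also: peak tail current of the secondary pulse compared with the same well before compound.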

human ether-à-go-go-related gene (hERG) potassium channel, sequence (Q12809 whole entry, looked up): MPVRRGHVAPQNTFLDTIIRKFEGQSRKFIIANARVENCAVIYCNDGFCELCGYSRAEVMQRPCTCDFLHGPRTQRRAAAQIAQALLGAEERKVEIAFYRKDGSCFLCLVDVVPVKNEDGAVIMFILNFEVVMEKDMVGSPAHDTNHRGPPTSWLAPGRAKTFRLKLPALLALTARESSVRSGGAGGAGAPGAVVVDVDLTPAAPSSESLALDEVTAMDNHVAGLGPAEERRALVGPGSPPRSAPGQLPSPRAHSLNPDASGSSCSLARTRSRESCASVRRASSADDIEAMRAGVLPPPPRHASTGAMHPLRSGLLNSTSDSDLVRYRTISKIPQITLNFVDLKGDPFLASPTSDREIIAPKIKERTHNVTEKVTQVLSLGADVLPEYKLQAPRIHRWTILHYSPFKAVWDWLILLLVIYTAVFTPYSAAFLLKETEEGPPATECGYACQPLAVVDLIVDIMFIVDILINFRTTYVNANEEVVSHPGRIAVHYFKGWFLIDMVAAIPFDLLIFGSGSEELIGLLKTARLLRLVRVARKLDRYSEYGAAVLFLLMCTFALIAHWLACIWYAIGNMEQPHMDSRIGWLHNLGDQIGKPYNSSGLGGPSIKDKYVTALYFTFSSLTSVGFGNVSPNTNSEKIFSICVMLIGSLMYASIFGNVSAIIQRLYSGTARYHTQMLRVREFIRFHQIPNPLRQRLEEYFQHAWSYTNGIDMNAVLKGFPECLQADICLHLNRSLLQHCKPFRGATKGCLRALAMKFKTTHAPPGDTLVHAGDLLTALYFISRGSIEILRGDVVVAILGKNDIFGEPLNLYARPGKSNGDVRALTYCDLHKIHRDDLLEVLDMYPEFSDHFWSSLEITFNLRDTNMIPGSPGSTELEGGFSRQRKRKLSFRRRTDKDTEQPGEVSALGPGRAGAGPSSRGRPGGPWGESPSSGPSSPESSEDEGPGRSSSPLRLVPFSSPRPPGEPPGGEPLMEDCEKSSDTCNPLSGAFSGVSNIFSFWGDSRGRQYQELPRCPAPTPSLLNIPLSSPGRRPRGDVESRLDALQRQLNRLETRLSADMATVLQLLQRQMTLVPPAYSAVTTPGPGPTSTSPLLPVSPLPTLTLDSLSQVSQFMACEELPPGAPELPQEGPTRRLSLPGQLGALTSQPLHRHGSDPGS

Point of comparison: `Cc1nn(-c2ccccc2)c(N2CCCC2)c1/C=N/NC(=O)c1cccc(S(=O)(=O)Nc2ccc(Cl)cc2)c1`, “hERG current change (%, negative = inhibition) at 10uM” value 3.12%. Against it:
- CC(Oc1ccc2c(c1)oc(=O)c1ccccc12)C(=O)NCCCN1CCOCC1 (stereo not shown) — lower, -36.6%
- CCOC(=O)c1oc2ccccc2c1NC(=O)COc1cccc(OC)c1 — higher, 10.4%
- COc1ccccc1C1=CC(=O)C[C@H](c2ccc(F)cc2)C1 — lower, -1.61%
- Cc1ccc(-c2nc3c(=O)n(-c4ccccc4)c4c(c(=O)n(C)c(=O)n4C)c3o2)cc1 — higher, 4.81%
- COC(=O)C1=C(C)N(CCCC(=O)O)C(=O)NC1c1cc2c(cc1[N+](=O)[O-])OCO2 (stereo not shown) — higher, 16.4%
- COc1ccc(CN(C)CC(=O)Nc2ccc(SC(F)F)cc2)cc1OC — lower, -76.2%
- CCCN1C(=O)/C(=C/c2c(N3CCNC(=O)C3CC(=O)OCC)nc3c(C)cccn3c2=O)SC1=S (stereo not shown) — lower, -13.1%
- CCC(=O)c1ccc(OCC(=O)N2CCCC2)c(OC)c1 — lower, -22.5%
- CCOc1ccc(CCNC(=O)CCCN2C(=O)c3ccccc3C2=O)cc1OCC — lower, 0.331%
- CCNC(=O)c1c(NC(C)=O)sc2c1CCCC2 — lower, -5.36%
- COc1ccc(CC(=O)N/N=C/c2ccc(-c3cccc(C(=O)O)c3)o2)cc1OC — higher, 3.33%
- Cc1cc(=O)oc2cc(NC(=O)c3cccc(S(C)(=O)=O)c3)ccc12 — higher, 15.1%
- COc1cc(/C=N/NC(=O)c2cccnc2)ccc1OCC(=O)Nc1ccccc1Cl — higher, 18.8%
- O=S(=O)(NCc1cccnc1)c1cccc2nsnc12 — lower, -13.8%
- COc1cc(C(=O)N2CCN(C/C=C/c3ccccc3)CC2)cc(OC)c1OC — lower, -35%
- C=CCn1c(SCC#N)nc2c(c1=O)C(C)(C)Cc1ccccc1-2 — lower, -0.613%
- NS(=O)(=O)c1ccc(CCNc2nc3c(-c4cccc(F)c4)nnn3c3ccccc23)cc1 — higher, 21.5%
- O=C(/C=C/c1cccs1)N1CCCCC1 — higher, 6.64%
- CCCCc1cc(=O)oc2cc(OCc3nn[nH]n3)ccc12 — lower, 0.904%
- CCCC(=O)Nc1c(-c2ccccc2)c(=O)c(C)nn1-c1ccccc1 — higher, 10.3%
- C=CC1C(N2CCOCC2)C(C)(C)S1(=O)=O (stereo not shown) — lower, 1.81%
- O=C(Nc1nc(-c2ccc3c(c2)OCO3)cs1)c1ccncc1 — lower, -0.461%
- O=C(NCc1ccco1)C1CCN(C(=O)c2cc3sccc3n2Cc2ccc(Cl)cc2)CC1 — lower, -64.8%
- O=C(CCc1nc2ccccc2c(=O)[nH]1)N1CCN(S(=O)(=O)c2ccccc2Br)CC1 — lower, -51.3%
- CC(C)OP(=O)(OC(C)C)C(NCc1ccccc1)c1ccccc1.Cl (stereo not shown) — lower, -21.9%
- O=c1c2ccccc2nc(SCc2ccc([N+](=O)[O-])cc2)n1-c1ccccc1 — higher, 10.9%
- Cc1ccc[n+](-c2[nH]c(=O)sc2/C=N/N=C(\[O-])CCn2c3ccccc3c3ccccc32)c1 — higher, 8.86%
- CCOCCCn1c(=NC(=O)c2ccc(OC)c(OC)c2)c(C#N)cc2c(=O)n3cccc(C)c3nc21 — lower, -63.4%
- O=C(CN1C(=O)NC2(CCCC2)C1=O)Nc1ccccc1C(F)(F)F — higher, 14.3%
- COc1ccc(CC(=O)OCC(=O)c2c[nH]c3ccccc23)cc1 — lower, -4.64%
- CC(=O)c1ccc(NC(=O)C(C)N(C)CC(=O)Nc2ccccc2Cl)cc1 (stereo not shown) — lower, -0.0331%
- COc1ccc(S(=O)(=O)Nc2cc(Cl)ccc2-n2cncn2)cc1 — lower, -0.298%
- COc1cc(NC(=O)CSc2nc(C)cs2)cc(OC)c1 — lower, -1.09%
- COc1ccc(-c2cc(=O)c3c(OC)c(OC)c(OC)c(OC)c3o2)cc1OC — lower, -14.9%
- CC1CC(C)CN(S(=O)(=O)c2ccc(NC(=O)CN3C(=O)NC(C)(c4ccccc4)C3=O)cc2)C1 (stereo not shown) — higher, 7.75%
- O=C(NC1CC1)c1ccc(-c2ccccc2)cc1 — higher, 19.2%
- COc1ccc(N2CC(NC(=O)N3CCN(c4ccccc4)CC3)CC2=O)cc1 (stereo not shown) — lower, -23.5%
- CCOC(=O)c1c(NC(=O)C2CCCO2)sc2c1CCC2 (stereo not shown) — lower, -8.39%
- O=C(O)c1ccccc1-c1ccccc1C(=O)NCc1ccccc1Cl — lower, -37.6%
- O=C(NNC(=O)c1cccnc1)Nc1ccc(Cl)c(Cl)c1 — higher, 8%
- CCOC(=O)CN1C(=O)N[C@@H](c2cccc(C(F)(F)F)c2)[C@@H](C(=O)OC)[C@H]1C — higher, 5.95%
- N#Cc1ccccc1Cn1c(=O)n(-c2ccc(CC(=O)NCc3ccco3)cc2)c(=O)c2sccc21 — higher, 7.64%
- CCC(CC)NC(=O)COn1nnc2ccc(S(=O)(=O)N3CCOCC3)cc21 — lower, -7.12%
- O=C(CSc1nc2ccccc2c(=O)n1Cc1ccco1)N1CCCCCC1 — lower, -76.4%
- O=C(NCCc1csc(-c2ccccc2)n1)c1ccco1 — lower, -29.7%
- COc1ccc(S(=O)(=O)Nc2ccc(NC(C)=O)cc2)cc1 — higher, 13.4%
- COc1ccc(NC(=O)CCN2CCN(S(=O)(=O)c3ccc(OC)cc3)CC2)cc1 — lower, -25%
- COCCn1c(SCC(=O)N2CCC(C)CC2)nc2c([nH]c3ccccc32)c1=O — lower, -19.8%
- Cc1ccc(Cn2nc(C)c(NC(=O)CSc3nc4c(c(C(F)(F)F)n3)CCc3ccccc3-4)c2C)cc1 — higher, 13.1%
- O=[N+]([O-])c1cc(-c2nnc(-c3ccccc3)o2)ccc1Oc1ccc(Cl)cc1 — lower, -0.998%
- N#CCCn1cc(C(=O)NCc2ccccc2)c(-c2ccccc2)n1 — lower, -13.6%
- CSc1nc(-c2ccc(Cl)cc2)nn1S(=O)(=O)c1ccc(Cl)cc1 — lower, -0.316%
- Cn1c(N)c(C#N)c2c(c1=S)CSC(C)(C)C2 — lower, -41.2%
- CCOc1ccc2nc(SCC(=O)NCc3ccc(OC)c(OC)c3)[nH]c2c1 — higher, 4.2%
- Cc1cccc(C(=O)O/N=C2\CCCc3ccccc32)c1 — higher, 8.49%
- Cc1cccc(-n2c(-c3ccoc3C)n[nH]c2=S)c1 — higher, 32.9%
- CCOC(=O)N1CCN(c2c(N3CCN(c4cc(C)ccc4C)CC3)c(=O)c2=O)CC1 — lower, -15.1%
- Cn1c(=O)c2nc(-c3ccc(Cl)cc3Cl)oc2c2ccccc21 — higher, 18.4%
- O=C(CN1C(=O)CCSc2ccccc21)Nc1ccccc1 — lower, -15%
- COC(=O)c1[nH]c2cccc(OC)c2c1NC(=O)CN1CC(C)OC(C)C1 (stereo not shown) — higher, 5.32%
- Cc1ccc(SCCNC(=O)c2ccc([N+](=O)[O-])c(C)c2)cc1 — lower, -10.3%
- COc1ccc(NS(=O)(=O)c2ccc(C(=O)OC(C)C(=O)N3CCOCC3)cc2)cc1 (stereo not shown) — lower, -17.3%
- COc1cccc(C(=O)NCCS(=O)(=O)N(C)C2CCCCC2)c1 — lower, -18.9%
- O=c1c2ccccc2nc(/C=C/c2ccccc2)n1-c1ccccc1O — higher, 9.71%
- Cn1c(O)c(N=Nc2ccccc2[N+](=O)[O-])c2ccccc21 — higher, 11.9%
- COc1cc(OC)cc(-c2nc3ccccc3s2)c1 — lower, -3.1%
- CCNc1nc(SCCOc2ccc(Br)cc2)nc(N(C)C)n1 — higher, 19.6%
- O=c1[nH]c(CSc2cccc[n+]2[O-])nc2ccccc12 — lower, -0.346%
- CC1CN(c2nc(N(C)c3ccccc3)nc(N)c2[N+](=O)[O-])CC(C)O1 (stereo not shown) — lower, -7.34%
- Cc1ccc(C)c(CS(=O)(=O)c2cn(CC(=O)N3CCC(C)CC3)c3ccccc23)c1 — lower, -15.2%
- Cc1csc(NC(=O)c2nc3nccc(C)n3n2)n1 — higher, 7.42%
- COC(=O)c1sccc1NC(=S)N1CCN(c2ccccc2F)CC1 — higher, 28.3%
- COc1ccccc1OCCCOc1ccc(/C=C2\SC(=O)NC2=O)cc1OC — higher, 18.5%
- COc1ccc(C(C)=O)cc1CC(=O)NCCCn1ccnc1 — higher, 13.3%
- Cc1cccc(Oc2ccc(NC(=O)c3ccccc3C(=O)O)cc2)c1C — higher, 19%
- O=C(CSc1cccc[n+]1[O-])Nc1ccc2c(c1)OCO2 — higher, 6.96%
- CC1=C(C)C(c2ccccc2)NC(=S)N1 (stereo not shown) — higher, 35.3%
- CCOC(CNC(=O)c1ccc(CNC(=O)c2ccc(OC)c(OC)c2)cc1)OCC — higher, 20.2%
- CS(=O)(=O)N1CCN(C(=O)C2c3ccccc3Oc3ccccc32)CC1 — lower, -10.2%
- O=C(COC(=O)c1c(F)cccc1F)NCc1ccc2c(c1)OCO2 — higher, 8.43%
- O=C(CCC(=O)Nc1ccc(Br)cc1)N/N=C/c1cc([N+](=O)[O-])ccc1O — higher, 20.7%
- COc1cc(OC)cc(C(=O)Nc2ccc(N3CCOCC3)cc2N2CCOCC2)c1 — lower, -32.5%
- CN(C)c1nc(C(=O)NN)nc(N(C)C)n1 — lower, 1.32%
- C#CC1CN(Cc2ccccc2)CC(C#C)N1C.Cl (stereo not shown) — higher, 15.4%

Source: PMC4336329 (PLoS ONE, 2015)
